# The other results are listed elsewhere or left out.
# B1: CFEM-PPl (Pichia pastoris), F2QPV1 (protein)
# chain: AVATPPACLLACAAEVVKESSDCDALNNIQCICENEGSAIHACLESTCPDGLSSTALQSFEDVCESVGTEANLDE
# What was measured:
# Assay in all cases: glycan array binding signal (z-score within array); higher = stronger binding
# Details in all cases: glycan notation: IUPAC condensed, linker removed
# [1] = target: Neu5Ac(a2-6)Gal(b1-4)GlcNAc(b1-3)Gal(b1-4)GlcNAc(b1-3)Gal(b1-4)GlcNAc(b1-2)Man(a1-3)[Neu5Ac(a2-6)Gal(b1-4)GlcNAc(b1-3)Gal(b1-4)GlcNAc(b1-3)Gal(b1-4)GlcNAc(b1-2)Man(a1-6)]GalNAc
# How it was run: (§1)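 The binding signal is a Z-score computed within each array and averaged over linkers. Arrays of the same protein sequence at different concentrations or buffers were also averaged together. Data originate from 3228 arrays in the Consortium for Functional Glycomics database, kept only where the protein sequence was available.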
# [2] = target: Neu5Ac(a2-6)Gal(b1-4)GlcNAc(b1-3)Gal(b1-4)GlcNAc(b1-3)GalNAc
# How it was run: as §1
# [3] = target: Neu5Ac(a2-6)Gal(b1-4)GlcNAc(b1-3)Gal(b1-4)GlcNAc(b1-3)[Neu5Ac(a2-6)Gal(b1-4)GlcNAc(b1-3)Gal(b1-4)GlcNAc(b1-6)]GalNAc
# How it was run: as §1
# [4] = target: Neu5Ac(a2-6)Gal(b1-4)GlcNAc(b1-3)Gal(b1-4)GlcNAc(b1-6)[Gal(b1-3)]GalNAc
# How it was run: as §1
# [5] = target: Neu5Ac(a2-6)Gal(b1-4)GlcNAc(b1-3)Gal(b1-4)[Fuc(a1-3)]GlcNAc(b1-3)Gal(b1-4)[Fuc(a1-3)]GlcNAc
# How it was run: as §1
# [6] = target: Neu5Ac(a2-6)Gal(b1-4)GlcNAc(b1-3)GalNAc
# How it was run: as §1
# [7] = target: Neu5Ac(a2-6)Gal(b1-4)GlcNAc(b1-3)[Neu5Ac(a2-6)Gal(b1-4)GlcNAc(b1-6)]GalNAc
# How it was run: as §1
# [8] = target: Neu5Ac(a2-6)Gal(b1-4)GlcNAc(b1-6)GalNAc
# How it was run: as §1
# [9] = target: Neu5Ac(a2-6)Gal(b1-4)GlcNAc(b1-6)[Gal(b1-3)GlcNAc(b1-3)]Gal(b1-4)Glc
# How it was run: as §1
# [10] = target: Neu5Ac(a2-6)Gal(b1-4)GlcNAc(b1-6)[Gal(b1-3)]GalNAc
# How it was run: as §1
# [11] = target: Neu5Ac(a2-6)Gal(b1-4)GlcNAc6S
# How it was run: as §1
# [12] = target: Neu5Ac(a2-6)GalNAc
# How it was run: as §1
# [13] = target: Neu5Ac(a2-6)GalNAc(b1-4)GlcNAc
# How it was run: as §1
# [14] = target: Neu5Ac(a2-6)GalNAc(b1-4)GlcNAc6S
# How it was run: as §1
# [15] = target: Neu5Ac(a2-6)GlcNAc(b1-4)GlcNAc
# How it was run: as §1
# [16] = target: Neu5Ac(a2-6)GlcNAc(b1-4)GlcNAc(b1-4)GlcNAc
# How it was run: as §1
# [17] = target: Neu5Ac(a2-8)Neu5Ac
# How it was run: as §1
# [18] = target: Neu5Ac(a2-8)Neu5Ac(a2-3)Gal(b1-3)GalNAc(b1-4)[Neu5Ac(a2-3)]Gal(b1-4)Glc
# How it was run: as §1
# [19] = target: Neu5Ac(a2-8)Neu5Ac(a2-3)Gal(b1-3)GalNAc(b1-4)[Neu5Ac(a2-8)Neu5Ac(a2-3)]Gal(b1-4)Glc
# How it was run: as §1
# [20] = target: Neu5Ac(a2-8)Neu5Ac(a2-3)Gal(b1-4)Glc
# How it was run: as §1
# [21] = target: Neu5Ac(a2-8)Neu5Ac(a2-3)Gal(b1-4)GlcNAc
# How it was run: as §1
# [22] = target: Neu5Ac(a2-8)Neu5Ac(a2-3)[Gal(b1-3)GalNAc(b1-4)]Gal(b1-4)Glc
# How it was run: as §1
# [23] = target: Neu5Ac(a2-8)Neu5Ac(a2-3)[GalNAc(b1-4)]Gal(b1-4)Glc
# How it was run: as §1
# [24] = target: Neu5Ac(a2-8)Neu5Ac(a2-8)Neu5Ac
# How it was run: as §1
# [25] = target: Neu5Ac(a2-8)Neu5Ac(a2-8)Neu5Ac(a2-3)Gal(b1-4)Glc
# How it was run: as §1
# [26] = target: Neu5Ac(a2-8)Neu5Ac(a2-8)Neu5Ac(a2-3)[Gal(b1-3)GalNAc(b1-4)]Gal(b1-4)Glc
# How it was run: as §1
# [27] = target: Neu5Ac(a2-8)Neu5Ac(a2-8)Neu5Ac(a2-3)[GalNAc(b1-4)]Gal(b1-4)Glc
# How it was run: as §1
# [28] = target: Neu5Ac(a2-8)Neu5Ac(a2-8)Neu5Ac(a2-8)Neu5Ac(a2-3)[GalNAc(b1-4)]Gal(b1-4)Glc
# How it was run: as §1
# [29] = target: Neu5Ac(a2-8)Neu5Gc(a2-3)Gal(b1-4)GlcNAc
# How it was run: as §1
# [30] = target: Neu5Ac(b2-6)Gal(b1-4)GlcNAc
# How it was run: as §1
# [31] = target: Neu5Ac(b2-6)GalNAc
# How it was run: as §1
# [32] = target: Neu5Ac9Ac(a2-3)Gal(b1-3)GlcNAc
# How it was run: as §1
# [33] = target: Neu5Ac9Ac(a2-3)Gal(b1-4)GlcNAc
# How it was run: as §1
# [34] = target: Neu5Ac9Ac(a2-6)Gal(b1-4)GlcNAc
# How it was run: as §1
# [35] = target: Neu5Gc(a2-3)Gal(b1-3)GlcNAc
# How it was run: as §1
# [36] = target: Neu5Gc(a2-3)Gal(b1-3)[Fuc(a1-4)]GlcNAc
# How it was run: as §1
# [37] = target: Neu5Gc(a2-3)Gal(b1-4)Glc
# How it was run: as §1
# [38] = target: Neu5Gc(a2-3)Gal(b1-4)GlcNAc
# How it was run: as §1
# [39] = target: Neu5Gc(a2-3)Gal(b1-4)GlcNAc(b1-3)Gal(b1-4)GlcNAc(b1-2)Man(a1-3)[Neu5Gc(a2-3)Gal(b1-4)GlcNAc(b1-3)Gal(b1-4)GlcNAc(b1-2)Man(a1-6)]Man(b1-4)GlcNAc(b1-4)GlcNAc
# How it was run: as §1
# [40] = target: Neu5Gc(a2-3)Gal(b1-4)[Fuc(a1-3)]GlcNAc
# How it was run: as §1
# [41] = target: Neu5Gc(a2-6)Gal(b1-4)GlcNAc
# How it was run: as §1
# [42] = target: Neu5Gc(a2-6)GalNAc
# How it was run: as §1
# [43] = target: Neu5Gc(a2-8)Neu5Ac(a2-3)Gal(b1-4)GlcNAc
# How it was run: as §1
# [44] = target: Neu5Gc(a2-8)Neu5Gc(a2-3)Gal(b1-4)GlcNAc
# How it was run: as §1
# [45] = target: Neu5Gc(a2-8)Neu5Gc(a2-3)Gal(b1-4)GlcNAc(b1-3)Gal(b1-4)GlcNAc
# How it was run: as §1
# [46] = target: Neu5Gc(a2-8)Neu5Gc(a2-6)Gal(b1-4)GlcNAc
# How it was run: as §1
# [47] = target: Neu5Gc(b2-6)Gal(b1-4)GlcNAc
# How it was run: as §1
binder,measurement,setting,value
B1,glycan array binding signal (z-score),[1],0.117
same,glycan array binding signal (z-score),[2],-0.213
same,glycan array binding signal (z-score),[3],-0.2
same,glycan array binding signal (z-score),[4],0.607
same,glycan array binding signal (z-score),[5],-0.201
same,glycan array binding signal (z-score),[6],-0.218
same,glycan array binding signal (z-score),[7],-0.305
same,glycan array binding signal (z-score),[8],0.028
same,glycan array binding signal (z-score),[9],-0.133
same,glycan array binding signal (z-score),[10],0.557
same,glycan array binding signal (z-score),[11],-0.197
same,glycan array binding signal (z-score),[12],-0.163
same,glycan array binding signal (z-score),[13],-0.261
same,glycan array binding signal (z-score),[14],-0.282
same,glycan array binding signal (z-score),[15],-0.245
same,glycan array binding signal (z-score),[16],-0.075
same,glycan array binding signal (z-score),[17],-0.261
same,glycan array binding signal (z-score),[18],-0.232
same,glycan array binding signal (z-score),[19],-0.115
same,glycan array binding signal (z-score),[20],-0.241
same,glycan array binding signal (z-score),[21],-0.222
same,glycan array binding signal (z-score),[22],1.22
same,glycan array binding signal (z-score),[23],-0.209
same,glycan array binding signal (z-score),[24],-0.305
same,glycan array binding signal (z-score),[25],-0.328
same,glycan array binding signal (z-score),[26],-0.169
same,glycan array binding signal (z-score),[27],-0.258
same,glycan array binding signal (z-score),[28],-0.099
same,glycan array binding signal (z-score),[29],-0.326
same,glycan array binding signal (z-score),[30],-0.238
same,glycan array binding signal (z-score),[31],-0.345
same,glycan array binding signal (z-score),[32],-0.242
same,glycan array binding signal (z-score),[33],-0.318
same,glycan array binding signal (z-score),[34],-0.368
same,glycan array binding signal (z-score),[35],-0.292
same,glycan array binding signal (z-score),[36],-0.36
same,glycan array binding signal (z-score),[37],-0.269
same,glycan array binding signal (z-score),[38],-0.269
same,glycan array binding signal (z-score),[39],-0.14
same,glycan array binding signal (z-score),[40],-0.197
same,glycan array binding signal (z-score),[41],-0.345
same,glycan array binding signal (z-score),[42],-0.264
same,glycan array binding signal (z-score),[43],-0.19
same,glycan array binding signal (z-score),[44],-0.14
same,glycan array binding signal (z-score),[45],-0.3
same,glycan array binding signal (z-score),[46],-0.24
same,glycan array binding signal (z-score),[47],-0.264

# Reference: the supplement of paper PMC8728848
